In all, about 45,000 compounds went through this assay and about 200 (0.44%) were called active. Roughly 7% stayed inconclusive and do not appear here. Calls come from the whole dose curve; as a rule, active = well fitted activation curve with a large enough effect; inconclusive = small, poorly fitted or top-dose-only effect; inactive = no such curve, though single readings can be large or run the other way. This is one part of the list.
Experiment: qHTS of TDP-43 Inhibitors: NCGC Sytravon Library Screen; note: 0% is about no effect; nearly all actives have a fitted effect of over 55% in size
Conditions: yeast TDP-43 toxicity rescue, BacTiter-Glo growth, 24 h; series mostly up to 46.1 µM; growth rescue (activation): at the top concentration
How it was run: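 TDP-43-expressing yeast, pregrown in raffinose, seeded at OD600 0.02 in galactose medium with compound for 24 hr at 30 deg C. Growth read by BacTiter-Glo luminescence, so rescue of toxicity appears as activation.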

For `Cc1cccc(-c2cc3nc(C)c(C)c(NCCCn4ccnc4)n3n2)c1`, which “growth rescue (activation)” value is on record?
Its value is inactive: 4.93%.

For `CCOC(=O)C1(Cc2ccccc2)CCCN(C(=O)c2ccc(-n3ccnc3)cc2)C1` (configuration not stated), which “growth rescue (activation)” value is on record?
Its value is inactive: 24.6%.

With `CC(C)(C)c1ccc(NC(=O)c2ccccc2)c([N+](=O)[O-])c1` as the compound, how does the “growth rescue (activation)” value read?
The value was inactive: -9.54%.

For `COC(=O)C1CCCCN1C(=O)c1cccc(OC2CCN(C(=O)C3CC3)CC2)c1` (configuration not stated), which “growth rescue (activation)” value is on record?
The value was inactive: 15.1%.

With `C=CCN(C(=O)c1csnn1)C(C(=O)NC1CCCCC1)c1ccc(C)cc1` (configuration not stated) as the compound, how does the “growth rescue (activation)” value read?
Its value is inactive: 3.13%.

With `Cc1ccc(Cn2ccnc2SCC(=O)Nc2ccc3c(c2)OCO3)cc1` as the compound, how does the “growth rescue (activation)” value read?
Its value is inactive: 28.7%.

For `O=C(CN1CCN(c2ccccc2F)CC1)Nc1ccc2c(c1)CCC2`, which “growth rescue (activation)” value is on record?
Its value is inactive: 11.3%.

Which “growth rescue (activation)” value does the source give for `C=CCOc1ccc(/C=N/NC(=O)CC(=O)NC2CCCCC2)cc1` here?
The value was inactive: 6.65%.

Which “growth rescue (activation)” value does the source give for `COc1ccc(C(=O)C=CNNC(=O)c2ccc(Cl)cc2)cc1` here?
The value was inactive: 11.7%.

With `O=C(/C=C/c1ccccc1[N+](=O)[O-])N1CCN(C(=O)c2ccco2)CC1` as the compound, how does the “growth rescue (activation)” value read?
Its value is inactive: -0.649%.

For `CCNC(=O)C1(C)CCN(C(=O)c2cc(F)cc(F)c2)C1` (configuration not stated), which “growth rescue (activation)” value is on record?
The value was inactive: 8.39%.

Which “growth rescue (activation)” value does the source give for `Cc1ccc(NS(=O)(=O)c2cc(-c3n[nH]c(=O)c4ccccc34)ccc2C)cc1` here?
The value was inactive: -21.8%.

Which “growth rescue (activation)” value does the source give for `CCOC(=O)C1(Cc2cccc(F)c2)CCN(C(=O)c2ccoc2C)CC1` here?
Its value is inactive: 28.8%.

Which “growth rescue (activation)” value does the source give for `O=C(NCCc1c[nH]c2ccccc12)/C(=C\c1cccnc1)NC(=O)c1ccccc1F` here?
Its value is inactive: -2.03%.

With `CC1=CC(C)(C)n2c(O)c(N=N)c3c(C)c(C)cc1c32` as the compound, how does the “growth rescue (activation)” value read?
Its value is inactive: 28.2%.

For `Cc1cc(C(=O)N2CCCC(C)(C(=O)NS(=O)(=O)C3CC3)C2)nn1C(C)(C)C` (configuration not stated), which “growth rescue (activation)” value is on record?
The value was inactive: 1.09%.

Which “growth rescue (activation)” value does the source give for `CCN(CC)C(=S)NC(=O)c1cc(OC)c(OC)c(OC)c1` here?
Its value is inactive: 7.95%.

With `O=C(NCCN1CCN(C(=O)c2c(F)cccc2F)CC1)C(=O)Nc1ccc(Cl)cc1` as the compound, how does the “growth rescue (activation)” value read?
The value was inactive: 13.2%.

Which “growth rescue (activation)” value does the source give for `CCOc1cc(NC(=O)C2CC2)c(OCC)cc1NC(=O)c1cc(OC)c(OC)c(OC)c1` here?
The value was inactive: 12.3%.

For `COc1ccc(C)cc1NC(=O)c1ccc(NS(=O)(=O)c2cccs2)cc1`, which “growth rescue (activation)” value is on record?
Its value is inactive: -3.01%.

With `CCOC(=O)c1c(C)[nH]c(C)c1C(=O)CSc1nc2ccccc2n1CCOC` as the compound, how does the “growth rescue (activation)” value read?
The value was inactive: 8.93%.

For `CC1CCN(CC(=O)NNC(=O)c2cccc(Br)c2)CC1`, which “growth rescue (activation)” value is on record?
The value was inactive: 13%.

For `CCOc1ccc(S(=O)(=O)N2CCCC(C(=O)NCc3cccnc3)C2)cc1Cl` (configuration not stated), which “growth rescue (activation)” value is on record?
The value was inactive: 4.57%.

Which “growth rescue (activation)” value does the source give for `Cc1ccc(C(=O)O)cc1NC(=O)c1ccc2c(c1)C(=O)N(c1ccc([N+](=O)[O-])cc1)C2=O` here?
Its value is inactive: 4.75%.

With `CN1CCN(C(=O)c2cnn(-c3ccccc3)c2NC(=O)c2ccccc2Cl)CC1` as the compound, how does the “growth rescue (activation)” value read?
The value was inactive: 6.74%.

Which “growth rescue (activation)” value does the source give for `Cc1c(C(=O)Nc2ccc3c(c2)OCCO3)cnn1C` here?
The value was inactive: 9.42%.

Which “growth rescue (activation)” value does the source give for `CN(C(=O)CSc1nc(N)c2c3c(sc2n1)CSC(C)(C)C3)c1ccccc1` here?
Its value is inactive: 17.2%.

Which “growth rescue (activation)” value does the source give for `O=C(CSc1nnc(-c2ccc(F)cc2)c2ccccc12)Nc1ccccc1` here?
The value was inactive: 26.6%.

Which “growth rescue (activation)” value does the source give for `COc1ccccc1CN(C)C(=O)CN1C(=O)c2ccccc2C1=O` here?
Its value is inactive: 9.5%.

Which “growth rescue (activation)” value does the source give for `COc1ccc(C2c3[nH]c4ccccc4c3CCN2CCCn2cccn2)cc1C` (configuration not stated) here?
The value was inactive: -4.71%.

Which “growth rescue (activation)” value does the source give for `O=C(Nc1ccc(F)cc1)c1cccc(N2C(=O)c3ccccc3C2=O)c1` here?
The value was inactive: 14%.

With `CCc1nnc(NC(=O)C2CC(=O)N(CCc3ccc(F)cc3)C2)s1` (configuration not stated) as the compound, how does the “growth rescue (activation)” value read?
The value was inactive: -11.8%.

For `CCCCOC(=O)c1ccc(NS(=O)(=O)c2cc(-c3nnnn3CC)ccc2OC)cc1`, which “growth rescue (activation)” value is on record?
Its value is inactive: 13%.

For `CC(C)(C)C1CCC(=NNC(=O)CN(c2ccccc2)S(=O)(=O)c2ccccc2[N+](=O)[O-])CC1` (configuration not stated), which “growth rescue (activation)” value is on record?
Its value is inactive: 8.49%.

For `O=C(O)c1ccc2c(=O)n3c(nc2c1)/C(=C/c1ccc(OC(F)F)cc1OC(F)F)CC3`, which “growth rescue (activation)” value is on record?
Its value is inactive: -0.88%.

For `COc1ccc(-c2nnc3n2-c2ccccc2SC3)cc1OC`, which “growth rescue (activation)” value is on record?
Its value is inactive: 2.94%.

Which “growth rescue (activation)” value does the source give for `COc1ccc(OC)c(NC(=O)COC(=O)CCc2nc3ccccc3c(=O)[nH]2)c1` here?
The value was inactive: -3.96%.

Which “growth rescue (activation)” value does the source give for `Cc1ccc(N(C(=O)c2snc(C(N)=O)c2N)C(C(=O)NCc2ccccc2)c2ccncc2)c(C)c1` (configuration not stated) here?
The value was inactive: 3.41%.

With `CCn1nccc1NC(=O)c1ccc2sc([C@@H]3O[C@H](CO)[C@H](O)[C@H](O)[C@H]3O)nc2c1` as the compound, how does the “growth rescue (activation)” value read?
Its value is inactive: -7.3%.

Which “growth rescue (activation)” value does the source give for `CSCC[C@H](NC(=O)NCc1ccc(F)cc1)C(=O)O` here?
Its value is inactive: 10.3%.

For `Cc1ccc(-n2c(SCC(=O)Nc3ccc(C(=O)O)cc3)nnc2-c2ccncc2)cc1`, which “growth rescue (activation)” value is on record?
The value was inactive: 4.6%.

For `CC12CCC(C(=O)NNc3ccc([N+](=O)[O-])cc3)(OC1=O)C2(C)C` (configuration not stated), which “growth rescue (activation)” value is on record?
Its value is inactive: -13%.

For `CC(C)N(CCc1ccncc1)C(=S)Nc1ccc(F)c(Cl)c1`, which “growth rescue (activation)” value is on record?
Its value is inactive: 23%.

With `CCNC(=O)C1(C)CCCN(Cc2csc3ccccc23)C1` (configuration not stated) as the compound, how does the “growth rescue (activation)” value read?
The value was inactive: 5.56%.

For `N#CC(C#N)=c1ccc2c(c1)N1C(c3ccccc3)=CC(c3ccccc3)C3CCCCC31N=2` (configuration not stated), which “growth rescue (activation)” value is on record?
The value was inactive: 2.82%.

With `C/C(=N\S(=O)(=O)c1ccc(C)cc1)N1CCCCC1` as the compound, how does the “growth rescue (activation)” value read?
The value was inactive: -15%.

For `CCOc1ccccc1N(C(=O)Nc1cccc(Cl)c1)C1=NC(C)CS1` (configuration not stated), which “growth rescue (activation)” value is on record?
The value was inactive: 18.6%.

With `C=CCOc1ccc(C=Nc2ccc(OC)cc2)c(O)c1` as the compound, how does the “growth rescue (activation)” value read?
The value was inactive: 0.805%.

With `O=C(Cc1ccccc1[N+](=O)[O-])Nc1ccccc1C(=O)N1CCCC1` as the compound, how does the “growth rescue (activation)” value read?
The value was inactive: -0.571%.

With `COc1cccc(CNC(=O)Cc2csc3ccccc23)c1OC` as the compound, how does the “growth rescue (activation)” value read?
The value was inactive: -1.93%.

Which “growth rescue (activation)” value does the source give for `O=C(NNC(=O)c1ccncc1)Nc1ccccc1` here?
Its value is inactive: 3.72%.

For `CCOC(=O)c1cc(C#N)c(N2CCN(C)CC2)nc1-c1ccccc1`, which “growth rescue (activation)” value is on record?
The value was inactive: -4.48%.

From PubChem BioAssay AID1347073 (National Center for Advancing Translational Sciences (NCATS), 2019)
